Experimental data reported in article PMC4336329 (PLoS ONE, 2015).
In all, about 310,000 compounds went through this assay and about 2,200 (0.71%) showed an effect of 50% or more. Effects have a minus sign here. The list shows a part of the results.

target: human ether-à-go-go-related gene (hERG) potassium channel (human, UniProt Q12809); assay: primary screen, population patch clamp on CHO cells stably expressing hERG
Sequence (Q12809 whole entry, looked up): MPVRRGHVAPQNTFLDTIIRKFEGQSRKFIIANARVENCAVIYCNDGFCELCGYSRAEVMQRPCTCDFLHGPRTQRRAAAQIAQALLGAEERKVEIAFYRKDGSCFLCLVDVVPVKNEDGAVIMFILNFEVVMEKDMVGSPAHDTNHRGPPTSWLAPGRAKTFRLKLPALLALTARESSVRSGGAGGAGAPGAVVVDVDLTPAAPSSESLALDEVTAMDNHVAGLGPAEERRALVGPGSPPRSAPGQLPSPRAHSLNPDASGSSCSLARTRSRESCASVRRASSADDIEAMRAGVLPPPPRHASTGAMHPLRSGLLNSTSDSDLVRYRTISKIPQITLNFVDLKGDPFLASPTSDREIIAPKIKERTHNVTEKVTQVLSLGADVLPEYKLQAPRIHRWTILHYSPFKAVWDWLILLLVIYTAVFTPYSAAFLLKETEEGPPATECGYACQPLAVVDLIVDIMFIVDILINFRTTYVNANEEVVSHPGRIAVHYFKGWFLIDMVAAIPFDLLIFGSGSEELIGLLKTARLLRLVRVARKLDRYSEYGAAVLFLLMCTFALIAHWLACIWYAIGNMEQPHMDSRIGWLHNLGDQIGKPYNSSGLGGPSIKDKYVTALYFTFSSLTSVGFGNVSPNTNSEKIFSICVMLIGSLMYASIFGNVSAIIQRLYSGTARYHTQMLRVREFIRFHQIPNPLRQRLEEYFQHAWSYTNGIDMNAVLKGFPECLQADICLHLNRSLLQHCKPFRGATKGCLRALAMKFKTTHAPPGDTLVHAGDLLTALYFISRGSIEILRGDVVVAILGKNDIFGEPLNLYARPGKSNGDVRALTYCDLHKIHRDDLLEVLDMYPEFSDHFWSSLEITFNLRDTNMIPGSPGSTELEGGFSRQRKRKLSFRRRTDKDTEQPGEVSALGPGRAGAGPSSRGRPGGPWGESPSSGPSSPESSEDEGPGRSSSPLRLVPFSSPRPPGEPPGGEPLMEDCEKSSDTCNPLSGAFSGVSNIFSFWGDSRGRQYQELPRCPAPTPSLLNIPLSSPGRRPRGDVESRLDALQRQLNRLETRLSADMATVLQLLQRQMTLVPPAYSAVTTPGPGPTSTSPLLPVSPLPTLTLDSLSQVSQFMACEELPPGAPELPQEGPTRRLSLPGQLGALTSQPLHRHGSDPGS

Q: For `CCOc1ccccc1-n1nnnc1SCC(=O)NCC1(N2CCOCC2)CCCCC1`, which “hERG current change (%, negative = inhibition) at 1uM” value is on record?
A: The value was -1.12%.

Q: For `CC(c1ccc(C(C)(C)C)cc1)S(=O)CC(O)CO` (stereo not shown), which “hERG current change (%, negative = inhibition) at 1uM” value is on record?
A: Its value is 0.188%.

Q: For `O=C(/C=C/c1ncc(C(F)(F)F)cc1Cl)OCc1ccccc1`, which “hERG current change (%, negative = inhibition) at 1uM” value is on record?
A: Its value is 6%.

Q: Which “hERG current change (%, negative = inhibition) at 1uM” value does the source give for `S=c1[nH]c2cnccc2n1Cc1ccccc1` here?
A: The value was 3.98%.

Q: How did the “hERG current change (%, negative = inhibition) at 1uM” value turn out when `CCCCN1C(=O)/C(=C/C=C2/C=Cc3ccccc3N2CC)SC1=S` was run?
A: The value was -0.626%.

Q: For `O=C(CCC(=O)N1CCCCC1)Nc1nnc(C2CCCCC2)s1`, which “hERG current change (%, negative = inhibition) at 1uM” value is on record?
A: Its value is 15.1%.

Q: How did the “hERG current change (%, negative = inhibition) at 1uM” value turn out when `COCCNC(=O)C(c1ccco1)N(C(=O)Cn1nnc2ccccc21)c1cccc(C)c1C` (stereo not shown) was run?
A: Its value is 4.58%.

Q: Which “hERG current change (%, negative = inhibition) at 1uM” value does the source give for `O=C(c1cc(-c2ccccn2)nc2ccc(Cl)cc12)N1CCN(CCc2ccccc2)CC1` here?
A: The value was 8.51%.

Q: With `CCN=C(Nc1ccc2c(c1)OCO2)SC1CC(=O)N(c2ccccc2F)C1=O` (stereo not shown) as the compound, how does the “hERG current change (%, negative = inhibition) at 1uM” value read?
A: The value was -3.86%.

Q: How did the “hERG current change (%, negative = inhibition) at 1uM” value turn out when `Cc1cc(C(=O)Nc2ccc3ccccc3c2)oc1C` was run?
A: Its value is -38.6%.

Q: `CN1/C(=C/C(=O)c2nc(S(C)(=O)=O)ncc2Cl)C(C)(C)c2ccccc21` was tested. Which “hERG current change (%, negative = inhibition) at 1uM” value did it give?
A: The value was 4.68%.

Q: `NC(=O)C[C@@H]1NC(=O)CNC(=O)c2cc([N+](=O)[O-])cc(I)c2NCCC(C(N)=O)NC1=O` (stereo partly shown) was tested. Which “hERG current change (%, negative = inhibition) at 1uM” value did it give?
A: The value was 7.79%.

Q: For `O=C(Cc1ccccc1Cl)NC1(O)C(=O)c2ccccc2C1=O`, which “hERG current change (%, negative = inhibition) at 1uM” value is on record?
A: Its value is 17%.

Q: `O=C(NNC(=O)c1cc(-c2ccc(Cl)cc2)nc2ccccc12)c1csc(N2CCOCC2)n1` was tested. Which “hERG current change (%, negative = inhibition) at 1uM” value did it give?
A: Its value is -1.57%.

Q: Which “hERG current change (%, negative = inhibition) at 1uM” value does the source give for `Cc1cccc(OCc2n[nH]c(=S)n2C2CCCCC2)c1` here?
A: Its value is 17.7%.

Q: `CC(=O)Nc1ccc(CN2CCN(CCC(C)C)C(CCO)C2)cc1` (stereo not shown) was tested. Which “hERG current change (%, negative = inhibition) at 1uM” value did it give?
A: Its value is 13.7%.

Q: For `O=[N+]([O-])c1ccc2c(c1)C(O)n1nc(-c3ccc(Cl)cc3Cl)nc1S2` (stereo not shown), which “hERG current change (%, negative = inhibition) at 1uM” value is on record?
A: Its value is 12.4%.

Q: With `Cc1ccc(S(=O)(=O)N(Cc2cc3ccccc3[nH]c2=O)c2cccc(C)c2)cc1` as the compound, how does the “hERG current change (%, negative = inhibition) at 1uM” value read?
A: Its value is 6.03%.

Q: With `Cc1ccc2cc(CCNC(=O)CCCc3ccccc3)c(=O)[nH]c2c1C` as the compound, how does the “hERG current change (%, negative = inhibition) at 1uM” value read?
A: The value was 11.6%.

Q: `O=C(c1ccc(F)c(S(=O)(=O)N2CCOCC2)c1)N1CCc2ccccc21` was tested. Which “hERG current change (%, negative = inhibition) at 1uM” value did it give?
A: Its value is 8.33%.

Q: Which “hERG current change (%, negative = inhibition) at 1uM” value does the source give for `O=C(CS(=O)(=O)c1ccc2ccccc2c1)Nc1ccccc1Cl` here?
A: Its value is 12.4%.

Q: For `NS(=O)(=O)c1ccc(CNS(=O)(=O)c2ccc(Cl)nc2)cc1`, which “hERG current change (%, negative = inhibition) at 1uM” value is on record?
A: The value was 4.83%.

Q: How did the “hERG current change (%, negative = inhibition) at 1uM” value turn out when `CC(=O)Nc1ccc(OC(=O)c2cccnc2)cc1` was run?
A: The value was 10.4%.

Q: With `COc1ccc(CCC(=O)N/N=C/c2ccc3c(c2)OCO3)cc1` as the compound, how does the “hERG current change (%, negative = inhibition) at 1uM” value read?
A: Its value is 10.6%.

Q: For `CCn1nc(NC(C)=O)c2cc3ccc(C)cc3nc21`, which “hERG current change (%, negative = inhibition) at 1uM” value is on record?
A: The value was 18.6%.

Q: How did the “hERG current change (%, negative = inhibition) at 1uM” value turn out when `COc1ccccc1-c1nc(N)n[nH]1` was run?
A: The value was 7.08%.

Q: For `O=C(COC(=O)Cc1ccccc1)Nc1nnc(-c2ccccc2)o1`, which “hERG current change (%, negative = inhibition) at 1uM” value is on record?
A: The value was -1.14%.

Q: With `CN(C)C(CNC(=O)c1cc(S(=O)(=O)N(C)Cc2ccccc2)ccc1Cl)c1ccco1` (stereo not shown) as the compound, how does the “hERG current change (%, negative = inhibition) at 1uM” value read?
A: Its value is 5.45%.

Q: For `O=C(COC(=O)C(c1ccccc1)c1ccccc1)NCc1ccco1`, which “hERG current change (%, negative = inhibition) at 1uM” value is on record?
A: The value was 6.22%.

Q: Which “hERG current change (%, negative = inhibition) at 1uM” value does the source give for `CCN1CCN(CC(=O)Nc2ccc(C(C)=O)cc2)CC1.Cl` here?
A: The value was 7.68%.

Q: For `CN1CCC2(CC1)N=C(c1ccc(F)cc1)C(=S)N2C(=O)c1ccccc1`, which “hERG current change (%, negative = inhibition) at 1uM” value is on record?
A: The value was 7.76%.

Q: Which “hERG current change (%, negative = inhibition) at 1uM” value does the source give for `COc1cccc(NC(=O)COC(=O)c2c3c(nc4ccccc24)CCC(C)C3)c1` (stereo not shown) here?
A: Its value is -14.7%.

Q: Which “hERG current change (%, negative = inhibition) at 1uM” value does the source give for `CCOc1ccc(OCc2ccc(C(=O)OCc3ccccn3)o2)cc1` here?
A: The value was 4.26%.

Q: Which “hERG current change (%, negative = inhibition) at 1uM” value does the source give for `CSc1ccc(C(=O)N2CCC(n3nccc3NC(=O)C3CC3)CC2)cc1` here?
A: The value was -24.3%.

Q: How did the “hERG current change (%, negative = inhibition) at 1uM” value turn out when `CCN1CCN(C(=O)c2ccc(-c3nc4ccccc4s3)s2)CC1` was run?
A: Its value is -6.33%.

Q: Which “hERG current change (%, negative = inhibition) at 1uM” value does the source give for `Cc1cc(C)n(C(=O)c2ccc(C)c(S(=O)(=O)N3CCCCC3)c2)n1` here?
A: The value was 9.6%.

Q: With `Cc1cccc(C)c1NC(=O)COC(=O)CNC(=O)C1CCCCC1` as the compound, how does the “hERG current change (%, negative = inhibition) at 1uM” value read?
A: The value was 12.2%.

Q: With `CC(=O)c1sc(NC(=O)Cc2c(F)cccc2Cl)nc1C` as the compound, how does the “hERG current change (%, negative = inhibition) at 1uM” value read?
A: Its value is 7.88%.

Q: With `CN1CCN(CC(=O)Nc2cccc(S(=O)(=O)N(C)c3ccccc3)c2)CC1` as the compound, how does the “hERG current change (%, negative = inhibition) at 1uM” value read?
A: Its value is 1.01%.

Q: With `CCOC(=O)c1ccc2[nH]cc(C(C)=O)c(=O)c2c1` as the compound, how does the “hERG current change (%, negative = inhibition) at 1uM” value read?
A: Its value is 3.52%.

Q: Which “hERG current change (%, negative = inhibition) at 1uM” value does the source give for `C/C(=N\NC(=O)c1cccc(S(=O)(=O)N2CCCC2)c1)c1ccc(OCC(=O)N(C)C)cc1` here?
A: Its value is 0.865%.

Q: Which “hERG current change (%, negative = inhibition) at 1uM” value does the source give for `COc1cccc(N2CCN(C(=O)c3cccc(N4C(=O)NC5CC4(C)Oc4c(OC)cccc45)c3)CC2)c1` (stereo not shown) here?
A: Its value is 14.7%.

Q: Which “hERG current change (%, negative = inhibition) at 1uM” value does the source give for `CC(=O)Oc1ccc2c3c(c(=O)oc2c1C)CCCC3` here?
A: Its value is 15.5%.

Q: With `COc1ccc(N2C(=O)CC(N3CCC(c4nc5ccccc5[nH]4)CC3)C2=O)cc1` (stereo not shown) as the compound, how does the “hERG current change (%, negative = inhibition) at 1uM” value read?
A: The value was -2.22%.

Q: For `CC1=C(C)CC(C(=O)NCc2ccccn2)C(C(=O)O)C1` (stereo not shown), which “hERG current change (%, negative = inhibition) at 1uM” value is on record?
A: Its value is 4.67%.

Q: How did the “hERG current change (%, negative = inhibition) at 1uM” value turn out when `CCCCn1c(N)c(NCc2ccccc2)c(=O)[nH]c1=O` was run?
A: The value was 14.7%.

Q: Which “hERG current change (%, negative = inhibition) at 1uM” value does the source give for `CCCCn1c(N)c(N(CC(C)C)C(=O)c2ccc(S(=O)(=O)N3CCC(C)CC3)cc2)c(=O)[nH]c1=O` here?
A: The value was 3.98%.

Q: `Cc1cc(NC(=O)CN2CCN(Cc3ccccc3)CC2)nc2c1c(=O)oc1ccccc12` was tested. Which “hERG current change (%, negative = inhibition) at 1uM” value did it give?
A: The value was 2%.

Q: `CCOc1ccc(C(C(=O)NC(C)(C)C)N(CCOC)C(=O)CCC(=O)Nc2nccs2)cc1` (stereo not shown) was tested. Which “hERG current change (%, negative = inhibition) at 1uM” value did it give?
A: The value was 17.2%.

Q: With `CCOc1cc(Cl)c(NC(C)=O)cc1OCC` as the compound, how does the “hERG current change (%, negative = inhibition) at 1uM” value read?
A: Its value is 10.6%.

Q: `CN(C)CCOC(=O)C12CC3CC(C1)CC(C(=O)OCCN(C)C)(C3)C2.Cl` was tested. Which “hERG current change (%, negative = inhibition) at 1uM” value did it give?
A: Its value is 13.2%.

Q: How did the “hERG current change (%, negative = inhibition) at 1uM” value turn out when `COc1cccc(/C=C2/SC(=S)N(CC(=O)NC3C=CS(=O)(=O)C3)C2=O)c1` (stereo not shown) was run?
A: Its value is 28.9%.

Q: Which “hERG current change (%, negative = inhibition) at 1uM” value does the source give for `CC1Cc2nc(SCC(=O)Nc3ccc4c(c3)OCCO4)n(C)c(=O)c2S1` (stereo not shown) here?
A: The value was 12.4%.

Q: With `COc1ccc(F)cc1S(=O)(=O)NCc1ccccc1` as the compound, how does the “hERG current change (%, negative = inhibition) at 1uM” value read?
A: Its value is 5.45%.

Q: `CN(C)CCCNC(=O)C(=O)NCC1OCCN1S(=O)(=O)c1cc(F)ccc1F` (stereo not shown) was tested. Which “hERG current change (%, negative = inhibition) at 1uM” value did it give?
A: The value was 0.429%.
